The campaign covered roughly 150,000 compounds. About 540 (0.36%) showed an effect of 50% or more. Some of the results follow.

What is called % Inhibition is the drop in the measured response relative to a control, in per cent.

In this experiment the test system is Plasmodium falciparum. Kind of experiment: Primary screen in NF54 nanoGlo assay, in single point, at 2uM, 72h; a lower Z score goes with more inhibition. In kind it is functional, Erythrocyte. The following applies: timepoint 72 hour.
In the case of `COc1ccc(C(=O)N2CCc3nc(N4CCN(c5ccccc5)CC4)nc(N4CCN(C)CC4)c3C2)cc1`, the “% Inhibition” value is on record as -13% and the Z score stood at 1.24.
On the same counts, the results for `COc1cc(CN2CCC[C@@]3(CCC(=O)N(C)C3)C2)cc(Cl)c1OCC(N)=O` are -10% and 1.85.
On the same counts, the results for `Cc1[nH]c2ccccc2c1[C@H]1C(c2ccccc2)=NN=CN1O` are -34% and 4.
Regarding `CC[C@@H](NC(C)=O)C(=O)Nc1nn(-c2ccc(F)cc2)c2cccc(OC(C)C)c12`, the “% Inhibition” value is listed as 13% and the Z score was -2.23.
In the same order, the values of `COc1c(C(=O)N2CCN(C(=O)[C@@H]3CCCO3)CC2)c(C)nn1C` are -1% and 0.11.
On the same counts, the results for `COc1ncccc1NC(=O)N1CCC[C@H](N2CCCCC2)C1` are -6% and 0.95.
In the same order, the values of `CCCn1nnnc1CN1CCCN(C(C)=O)CC1` are 5% and -0.81.
Consider `Cc1ccc(C(=O)CCN2CC[S+]([O-])CC(C)C2)cc1` (configuration not stated), for which the “% Inhibition” value is 2% and the Z score is -0.24.
In the same order, the values of `CN(C)S(=O)(=O)NCc1cccnc1-c1ccco1` are -16% and 3.04.
On the same counts, the results for `COC(=O)c1cc(F)ccc1CN1C(=O)CC(C)(C)C1=O` are -16% and 2.22.
On the same counts, the results for `Cc1ccc(C(=O)N2C(=O)C(c3ccc(F)cc3)=NC2(C)C)cc1C` are -14% and 1.4.
For `CN1CC(=O)N(CC(=O)N2CCN(c3cccc(C(F)(F)F)c3)CC2)C1=O`, the “% Inhibition” value is listed as -10% and the Z score stood at 1.88.
In the same order, the values of `CCc1cc([C@@H]2CCCN2C(=O)NCc2ccccc2)on1` are 18% and -2.63.
For the molecule `C[C@@H](CC#N)NC(=O)c1ccc(O)cc1O`, the “% Inhibition” value stood at 3% and the Z score is on record as -0.43.
In the same order, the values of `FC(F)(F)CN1CC[C@H](NCc2cccc(-c3ccccc3)c2)C1` are -8% and 1.5.
On the same counts, the results for `CC[C@H](NC(=O)c1cc(-c2ccco2)nc2c(Cl)cccc12)c1cnn(C)c1` are -14% and 2.04.
On the same counts, the results for `Cc1cccc(C2CCN(C(=O)N[C@H]3CC[C@@H](C#N)C3)C2)c1` (some centres not stated) are -5% and 0.75.
Regarding `COc1ccc(-c2cc3c(=O)n(C[C@H](O)c4cc(C)c(C)cc4C)ccn3n2)cc1`, the “% Inhibition” value is given as -11% and the Z score is on record as 2.06.
On the same counts, the results for `O=C(Cc1cccc2ccccc12)N1C2CCC1COC2` are -12% and 1.31.
In the same order, the values of `CCc1ccc(CN(CN2C(=O)NC3(CCC(C)CC3)C2=O)C2CC2)cc1` (configuration not stated) are 3% and -0.6.
Regarding `Cc1[nH]nc(CCC(=O)NCc2ccc3c(c2)nc(C)n3C)c1C`, the “% Inhibition” value was found to be 11% and the Z score is on record as -2.3.
With `Cc1ccc(C(=O)Nc2ccsc2-c2nnc(C(C)C)o2)cc1C`, the “% Inhibition” value was -14% and the Z score is 1.41.
On the same counts, the results for `CC(C(=O)NCc1ccc2c(c1)OCO2)N1CCN(C(C)C(=O)NCc2ccc3c(c2)OCO3)CC1` (configuration not stated) are -6% and 1.19.
Take `O=C(c1ccc2ncsc2c1)N1CCC(n2c(=O)[nH]c3ccc(F)cc3c2=O)CC1`: the “% Inhibition” value is on record as -3% and the Z score is recorded as 0.36.
Consider `CC(C)c1ccc(-c2nnn(CCC(=O)Nc3ccc(Cl)cc3F)n2)cc1`, for which the “% Inhibition” value is 5% and the Z score is recorded as -0.39.
In the same order, the values of `CCN1CCN(C(=O)c2cc3cc(NC(=O)c4ccc(C)cc4)ccc3n2Cc2ccc(C(C)(C)C)cc2)CC1` are -2% and 0.32.
In the same order, the values of `CC(C)c1noc([C@H](C)NS(=O)(=O)c2cccc3nsnc23)n1` are -3% and 0.46.
In the same order, the values of `CC1CC(OC(=O)c2cc(-c3cccc(Cl)c3)[nH]n2)C(=O)O1` (configuration not stated) are 1% and -0.08.
Turning to `N#Cc1cccc([C@@H](N)C(F)(F)F)c1`, the “% Inhibition” value is recorded as -2% and the Z score turned out to be 0.23.
In the same order, the values of `CC(C)(C)c1nsc(NC2CCN(CCS(C)(=O)=O)CC2)n1` are -6% and 0.61.
Regarding `O=C(Cc1ccon1)Nc1ccccc1Oc1cc(F)cc(F)c1`, the “% Inhibition” value is recorded as -6% and the Z score is reported as 0.7.
On the same counts, the results for `CC(C)Oc1cccc2c1c(NC(=O)[C@@H]1CCCN1C)nn2Cc1ccccc1` are -6% and 1.11.
In the same order, the values of `Cc1cc(C(=O)N[C@H](c2cncc(Br)c2)C2CC2)on1` are -15% and 1.55.
With `C[C@H]1c2ccccc2CN1C(=O)CC1=CCCCC1`, the “% Inhibition” value is 2% and the Z score was -0.21.
On the same counts, the results for `CCn1cncc1Cn1ccnc1-c1cccc(OC)c1OC` are 9% and -1.27.
On the same counts, the results for `O=C(NCCc1cccnc1)c1ccccc1C(=O)c1ccc(F)cc1` are -3% and 0.45.
In the case of `Cc1ccc2c(c1)CN(C(=O)NC1CN(C3CC3)CC1C)C2` (configuration not stated), the “% Inhibition” value is -3% and the Z score turned out to be 0.53.
In the same order, the values of `Cc1ccc(C(=O)N2C[C@@H]3CN(C4CCCC4)C[C@]3(C(=O)O)C2)cc1` are -5% and 0.81.
On the same counts, the results for `CCN1CC2(CCN(c3ccc(C(=O)O)cn3)CC2)CC1=O` are -9% and 0.85.
For the molecule `CC1CN(C(=O)COC(=O)c2ccc3nccnc3c2)CC(C)O1` (configuration not stated), the “% Inhibition” value is listed as -6% and the Z score is 1.05.
As to `Cc1ccccc1N1CCN(C(=O)c2n[nH]c3c2CN(C(=O)Cc2ccc(Cl)cc2Cl)CC3)CC1`, the “% Inhibition” value was 4% and the Z score was -0.69.

The values above are taken from ChEMBL document CHEMBL4888484, “Replenishing the malaria drug discovery pipeline: Screening and hit evaluation of the MMV Hit Generation Library 1 (HGL1) against asexual blood stage Plasmodium falciparum ,using a nano luciferase reporter read-out” (2022).
